{"source": "paper PMC11149917", "about": "“Translational and Therapeutic Evaluation of RAS-GTP Inhibition by RMC-6236 in RAS-Driven Cancers” (Cancer Discovery, 2024)", "system": "PRISM panel of 845 cancer cell lines", "test": "PRISM assay", "assay_type": "cell-based, human", "method": "The PRISM cell set comprised 845 cell lines representing more than 45 lineages (see Supplementary Table S1 for cell line information), which largely overlapped with the Cancer Cell Line Encyclopedia; https://portals.broadinstitute.org/ccle). Cell lines were grown in RPMI without phenol red and supplemented with 10% or 20% FBS for adherent and suspended lines, respectively. Parental cell lines were stably infected with a unique 24-nucleotide DNA barcode via lentiviral transduction and blasticidin selection. After selection, barcoded cell lines were expanded and subjected to quality control (Mycoplasma contamination test, an SNP test for confirming cell line identity, and barcode ID confirmation). Approved cell lines were then pooled (20–25 cell lines per pool) based on doubling time similarity and frozen in assay-ready vials.\nRMC-6236 was added to 384-well plates at 8-point concentration with 3-fold dilutions in triplicate. These assay-ready plates were then seeded with the thawed cell line pools. Adherent cell pools were plated at 1,250 cells per well, whereas suspension and mixed adherent/suspension pools were plated at 2,000 cells per well. Treated cells were incubated for 5 days, and then lysed. Lysate plates were collapsed together prior to barcode amplification and detection.\nEach cell line's unique barcode is located in the 3′UTR of the blasticidin-resistance gene and therefore is expressed as mRNA. Total mRNA was captured using magnetic particles that recognize polyA sequences. Captured mRNA was reverse-transcribed into cDNA and then the sequence containing the unique PRISM barcode was amplified using PCR. Finally, Luminex beads that recognize the specific barcode sequences in the cell set were hybridized to the PCR products and detected using a Luminex scanner which reports the signal as a median fluorescent intensity (MFI).\n• Each detection well contained 10 control barcodes in increasing abundances as spike-in controls. For each plate, we first create a reference profile by calculating the median of the log2(MFI) values across negative control wells for each of these spiked-in barcodes. • For each well, a monotonic smooth p-spline was fitted to map the spike-in control levels to the reference profile. Next, we transform the log2(MFI) for each cell barcode using the fitted spline to allow well-to-well comparisons by correcting for amplification and detection artifacts. • Next, the separability between negative and positive control treatments was assessed. In particular, we calculated the error rate of the optimum simple threshold classifier between the control samples for each cell line and plate combination. The error rate is a measure of the overlap of the two control sets and was defined as error = (FP + FN)/n, where FP is false positives, FN is false negatives, and n is the total number of controls. A threshold was set between the distributions of positive and negative control log2(MFI) values (with everything below the threshold said to be positive and above said to be negative) such that this value is minimized. Additionally, we also calculated the dynamic range of each cell line. […] Additionally, any cell line that had less than 2 passing replicates was also omitted for the sake of reproducibility. Finally, we computed viability by normalizing with respect to the median negative control for each plate.\nFor every gene with nonsilent mutations in at least four cell lines, we compared the AUC values between cells with and without those mutations using a t test. This analysis was carried out for (i) the full data set; (ii) excluding cell lines with nonsilent KRAS mutations; and (iii) excluding cell lines that have either KRAS or NRAS nonsilent mutations.", "note": "This continues a long series; more values of the same kind are listed elsewhere.", "data": [{"compound": "CCn1c(-c2cc(N3CCN(C)CC3)cnc2[C@H](C)OC)c2c3cc(ccc31)-c1csc(n1)C[C@H](NC(=O)[C@H]1C[C@@H]1C)C(=O)N1CCC[C@H](N1)C(=O)OCC(C)(C)C2", "note": "[RMC-6236]", "values": [{"measurement": "RMC-6236: RevMed PRISM: AUC", "setting": "SCC3_HAEMATOPOIETIC_AND_LYMPHOID_TISSUE", "result": 0.4975}, {"measurement": "RMC-6236: RevMed PRISM: AUC", "setting": "SCC25_UPPER_AERODIGESTIVE_TRACT", "result": 0.6103}, {"measurement": "RMC-6236: RevMed PRISM: AUC", "setting": "SCLC21H_LUNG", "result": 0.8658}, {"measurement": "RMC-6236: RevMed PRISM: AUC", "setting": "SF126_CENTRAL_NERVOUS_SYSTEM", "result": 0.812}, {"measurement": "RMC-6236: RevMed PRISM: AUC", "setting": "SF539_CENTRAL_NERVOUS_SYSTEM", "result": 0.7786}, {"measurement": "RMC-6236: RevMed PRISM: AUC", "setting": "SG231_BILIARY_TRACT, KRAS p.G12F", "result": 0.4532}, {"measurement": "RMC-6236: RevMed PRISM: AUC", "setting": "SH10TC_STOMACH, KRAS p.G12V", "result": 0.644}, {"measurement": "RMC-6236: RevMed PRISM: AUC", "setting": "SHMAC5_PROSTATE", "result": 0.5238}, {"measurement": "RMC-6236: RevMed PRISM: AUC", "setting": "SHP77_LUNG, KRAS p.G12V", "result": 0.7702}, {"measurement": "RMC-6236: RevMed PRISM: AUC", "setting": "SKGII_ENDOMETRIUM", "result": 0.807}, {"measurement": "RMC-6236: RevMed PRISM: AUC", "setting": "SKGI_ENDOMETRIUM", "result": 0.6802}, {"measurement": "RMC-6236: RevMed PRISM: AUC", "setting": "SKGT4_OESOPHAGUS, KRAS p.G12A", "result": 0.383}, {"measurement": "RMC-6236: RevMed PRISM: AUC", "setting": "SKM1_HAEMATOPOIETIC_AND_LYMPHOID_TISSUE, KRAS p.K117N", "result": 0.2685}, {"measurement": "RMC-6236: RevMed PRISM: AUC", "setting": "SKMEL5_SKIN", "result": 0.8508}, {"measurement": "RMC-6236: RevMed PRISM: AUC", "setting": "SKMEL28_SKIN", "result": 1}, {"measurement": "RMC-6236: RevMed PRISM: AUC", "setting": "SKMEL30_SKIN, NRAS p.Q61K", "result": 0.4948}, {"measurement": "RMC-6236: RevMed PRISM: AUC", "setting": "SKMES1_LUNG", "result": 0.7404}, {"measurement": "RMC-6236: RevMed PRISM: AUC", "setting": "SKNAS_AUTONOMIC_GANGLIA, NRAS p.Q61K", "result": 0.3702}, {"measurement": "RMC-6236: RevMed PRISM: AUC", "setting": "SKNBE2_AUTONOMIC_GANGLIA", "result": 0.6065}, {"measurement": "RMC-6236: RevMed PRISM: AUC", "setting": "SKNDZ_AUTONOMIC_GANGLIA", "result": 0.892}, {"measurement": "RMC-6236: RevMed PRISM: AUC", "setting": "SKNEP1_BONE", "result": 0.827}, {"measurement": "RMC-6236: RevMed PRISM: AUC", "setting": "SKNFI_AUTONOMIC_GANGLIA", "result": 0.7227}, {"measurement": "RMC-6236: RevMed PRISM: AUC", "setting": "SKNO1_HAEMATOPOIETIC_AND_LYMPHOID_TISSUE", "result": 0.5954}, {"measurement": "RMC-6236: RevMed PRISM: AUC", "setting": "SKN_ENDOMETRIUM", "result": 0.7409}, {"measurement": "RMC-6236: RevMed PRISM: AUC", "setting": "SKOV3_OVARY", "result": 0.8252}, {"measurement": "RMC-6236: RevMed PRISM: AUC", "setting": "SKPNDW_BONE", "result": 0.7684}, {"measurement": "RMC-6236: RevMed PRISM: AUC", "setting": "SKUT1_SOFT_TISSUE, HRAS p.R73C", "result": 0.8832}, {"measurement": "RMC-6236: RevMed PRISM: AUC", "setting": "SNGM_ENDOMETRIUM, KRAS p.G12V", "result": 0.5921}, {"measurement": "RMC-6236: RevMed PRISM: AUC", "setting": "SNU46_UPPER_AERODIGESTIVE_TRACT", "result": 0.7626}, {"measurement": "RMC-6236: RevMed PRISM: AUC", "setting": "SNU61_LARGE_INTESTINE, KRAS p.G12D", "result": 0.3181}, {"measurement": "RMC-6236: RevMed PRISM: AUC", "setting": "SNU119_OVARY", "result": 0.759}, {"measurement": "RMC-6236: RevMed PRISM: AUC", "setting": "SNU182_LIVER", "result": 0.9962}, {"measurement": "RMC-6236: RevMed PRISM: AUC", "setting": "SNU213_PANCREAS, KRAS p.G12V", "result": 0.4211}, {"measurement": "RMC-6236: RevMed PRISM: AUC", "setting": "SNU216_STOMACH", "result": 0.7562}, {"measurement": "RMC-6236: RevMed PRISM: AUC", "setting": "SNU245_BILIARY_TRACT", "result": 0.845}, {"measurement": "RMC-6236: RevMed PRISM: AUC", "setting": "SNU398_LIVER", "result": 1}, {"measurement": "RMC-6236: RevMed PRISM: AUC", "setting": "SNU410_PANCREAS, KRAS p.G12D", "result": 0.7477}, {"measurement": "RMC-6236: RevMed PRISM: AUC", "setting": "SNU423_LIVER", "result": 0.8129}, {"measurement": "RMC-6236: RevMed PRISM: AUC", "setting": "SNU489_CENTRAL_NERVOUS_SYSTEM", "result": 0.962}, {"measurement": "RMC-6236: RevMed PRISM: AUC", "setting": "SNU668_STOMACH, KRAS p.Q61K", "result": 0.435}, {"measurement": "RMC-6236: RevMed PRISM: AUC", "setting": "SNU685_ENDOMETRIUM", "result": 0.9177}, {"measurement": "RMC-6236: RevMed PRISM: AUC", "setting": "SNU869_BILIARY_TRACT, KRAS p.G12D", "result": 0.5979}, {"measurement": "RMC-6236: RevMed PRISM: AUC", "setting": "SNU878_LIVER", "result": 0.869}, {"measurement": "RMC-6236: RevMed PRISM: AUC", "setting": "SNU899_UPPER_AERODIGESTIVE_TRACT, HRAS p.G13R", "result": 0.3744}, {"measurement": "RMC-6236: RevMed PRISM: AUC", "setting": "SNU1066_UPPER_AERODIGESTIVE_TRACT", "result": 0.5644}, {"measurement": "RMC-6236: RevMed PRISM: AUC", "setting": "SNU1077_ENDOMETRIUM", "result": 1}]}]}
